Assay results published in paper PMC12136788.
The list shows a part of the results.

T1: UNK ZnF1-3 (human, UniProt Q9C0B0 31-174)
T1 sequence: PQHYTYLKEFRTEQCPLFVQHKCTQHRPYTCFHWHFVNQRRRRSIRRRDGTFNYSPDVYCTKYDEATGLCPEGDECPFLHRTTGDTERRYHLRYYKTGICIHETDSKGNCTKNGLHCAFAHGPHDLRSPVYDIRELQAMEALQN

B1: chr1:115276673:115276674:-_ENSG00000009307_ENST00000339438|perfect_dup|FALSE|FALSE (ssRNA)
RNA: GGGAGUUCUACAGUCCGACGAUCUGUGAAUUCCACAUCAUCGCCAGGCUGUAAGGUUUCUAAGUCACCCUUAAAUUCACUAUAGUGAAAGAAUAUCUCUUUUACAACAUCACCUCUUUCAAUAAAGCCAAAUGCCUCCUUCAUCAACAGAGGAUUGAGCAUCA
B2: chr3:141904083:141904084:-_ENSMUSG00000028273_ENSMUST00000029941|mus_mus|motif|central (ssRNA)
RNA: GGGAGUUCUACAGUCCGACGAUCGCUUCCAUUUUGCAAUGUGGUAUCACCCUUGCUGUUCAUUGAUCUCCCAGUUCAUUACGGUCUGCAUAUAAUAUAAAUUCACUAGACCAUAGAUUAGCAGCUUUCAGGACAGAUGCCUUGCAACAGAGGAUUGAGCAUCA
B3: chr7:125262511:125262512:-_ENSMUSG00000030654_ENSMUST00000032888|mus_hu|FALSE|FALSE (ssRNA)
RNA: GGGAGUUCUACAGUCCGACGAUCGUAGAAGAAAUAAUACAGGAUUAAAACUGCAAAAGUAGUUAAUCAGUAGAAUAUGUAUGCACACAAAAAAUCCAGAUAGGAAGACAGGCUUAUUUACAAUGAAAGUAAGGUAAAAUUAACCAACAGAGGAUUGAGCAUCA
B4: chr16:8992458:8992459:-_ENSG00000187555_ENST00000381886|hu_mus|FALSE|FALSE (ssRNA)
RNA: GGGAGUUCUACAGUCCGACGAUCUUGUCUUGGCUUGAAGAAUUGUAGAAGAUCUCUUAAAGUACCUUCGUAAUUAUGCCUAAGAGGAUUACCGGGGCCGUCCCUAUAACCUUGAGACUUGAAAAACUGCAGCAGCAUGGGGUCCAACAGAGGAUUGAGCAUCA
B5: 12699133_12699253_60_3pUTR_ENSMUSG00000032625_ENSMUST00000046121|mouse|control|control (ssRNA)
RNA: GGGAGUUCUACAGUCCGACGAUCCGCCGCCGCCGCUGGCUGGCGGGGAUGCUGGCGGGGAUGCUGCCGCCGCUGCCAUGGCGCGCAGACUGGCAGGUCCUAGCGGCGAGGGACACAGCCGGCCGCAGGGGGCCCCAGCUGACACAACAGAGGAUUGAGCAUCA
B6: chr4:45007048:45007049:-_ENSMUSG00000049657_ENSMUST00000055028|mus_hu|motif|central (ssRNA)
RNA: GGGAGUUCUACAGUCCGACGAUCGUUCUGAUUUGCAGUAAAGUUAUUUCCUCUGCUCUUGUUAAGAAAAUUCGAAAUACGGAAAGUGGACUUAUGCUCUAGGUUAUUUGUGACUUCCAAAAUAUGGAUAUCACCUACCCUGUCCAACAGAGGAUUGAGCAUCA
B7: chr11:29606814:29606815:+_ENSMUSG00000020458_ENSMUST00000102843|mus_hu|FALSE|FALSE (ssRNA)
RNA: GGGAGUUCUACAGUCCGACGAUCCAAUUUAGUAAGAGCUGUAGGUAACUCUUGUUGAUUAUGAAGGAUGUUAUUACUAACUAACUUCUCUUCUUCAUCUUUAUUUUUCACGAUUAUUUCUUCCCUAGGAUUUGCUACUAUUACCAACAGAGGAUUGAGCAUCA
B8: chr1:220276048:220276049:+_ENSG00000067704_ENST00000302637|hu_hu|hu_hu_hu_mus_True|68_78 (ssRNA)
RNA: GGGAGUUCUACAGUCCGACGAUCGCAAAUUGCCUGGUUGGCGGGAAUUGUCCAAGGUUGUGUGGUCCAGACCAAAACGCUAACAGGGGAUGAGGCAUCUGUAAGAGACUCCAACUUCGGAGGAGGUCUCAGGAGGGGGAAUCUCAACAGAGGAUUGAGCAUCA
B9: chr2:168009442:168009443:-_ENSMUSG00000051149_ENSMUST00000088001|mus_mus|motif|central (ssRNA)
RNA: GGGAGUUCUACAGUCCGACGAUCGCGAUUACAGUAGAGGCAUUUGCUAGUAAAAUUGUGUAUUUUCAUAAUGUAGUUAGCGGCGGCUGGGACUUUCUCAGCUUUAUGCUCCUUUUCGAAGUGAACGCUAUAGACAUUCUCAGGCAACAGAGGAUUGAGCAUCA
B10: chr12:49579495:49579496:-_ENSG00000167552_ENST00000550767|hu_mus|FALSE|FALSE (ssRNA)
RNA: GGGAGUUCUACAGUCCGACGAUCGGCCCCAUCAAAUCUGAGGGAAGCAGUGAUGGAAGACACAAUUUGACCUAUCAACCUGUUUAGGUUAGUGUAGGUUGGGCGCUCAAUGUCGAGGUUUCUACGACAGAUAUCAUAGAUGGCCAACAGAGGAUUGAGCAUCA
B11: chr9:95013113:95013114:-_ENSG00000196305_ENST00000443024|hu_hu|hu_hu_hu_mus_False|8_8 (ssRNA)
RNA: GGGAGUUCUACAGUCCGACGAUCCUCAGUCAGAAAGGGCGUGUAAGGGGCCAUCAGUCUGCACAGAGAAAGCAGGACACUGAACAGUGUCUCCAGAGCCAUGACACAGUCUUCCACCCCACUCUCACCCUUUAAUCUCCUCCUCAACAGAGGAUUGAGCAUCA
B12: chr9:58049234:58049235:-_ENSMUSG00000051243_ENSMUST00000163200|mus_mus|motif|central (ssRNA)
RNA: GGGAGUUCUACAGUCCGACGAUCGCUGUGGCGGUGGGGAGAAAGGGGGAGUGCAUUGAAAGAACUCCCCUUGGCCCCAAAGUCCGGCUUCAAUUUUUUUCUUUCCUUAUCUGUUCGCCCUACUUCUCCAGGAUUGCAGGUUUGCAACAGAGGAUUGAGCAUCA
B13: chr9:110451384:110451385:+_ENSMUSG00000044791_ENSMUST00000153838|mus_hu|motif|central (ssRNA)
RNA: GGGAGUUCUACAGUCCGACGAUCAGGAUUUUUAUUAAUCAUUCUUAAUUCACUACCUUUUGAACAAGGUGUCUGUAAACGGAAAGAAUGAGACUGUUUGAUUUCUUCAUUUAAUUCUGUACAACAGAAAGAAUUUUUAAAUUUCAACAGAGGAUUGAGCAUCA
B14: chr14:102378876:102378877:+_ENSG00000078304_ENST00000445439|hu_hu|FALSE|FALSE (ssRNA)
RNA: GGGAGUUCUACAGUCCGACGAUCAGACAUUUUCAUAUACAACGUUAGUGAAAUCGAGACCCCCCCCAUGGUGAAGACAUAUAUUCCUAUCUUAUAAAAACAUUCAAGUAACCCUGGGCGUUUUCAUGUUAUUCUCUUUUUUAGCAACAGAGGAUUGAGCAUCA
B15: chr11:87794392:87794393:-_ENSMUSG00000020483_ENSMUST00000020775|mus_mus|motif|central (ssRNA)
RNA: GGGAGUUCUACAGUCCGACGAUCCACACCCACCCCUGCCCCAAGCCAUAGUCACAGUUCUGUGGAAUAUUCUCCCCGGUACGGGAGCCACCACCCCCCCCCCCACCUUCCUGCCCCUCUCCUUGCCAAUCCUAACCCUGUCCUCAACAGAGGAUUGAGCAUCA
B16: chr1:66480114:66480115:+_ENSMUSG00000015222_ENSMUST00000024639|mus_hu|mus_mus_mus_hu_True|28_48 (ssRNA)
RNA: GGGAGUUCUACAGUCCGACGAUCUGGCCUGUGGCGGAUGUUCUUCAGAGAGCCACAUUUGGAUGUCACAUGGCUUAGGUCUAUUUUCUUAGUAACAAUUUGUACCUGACCCCCCUUAGGCUGGUAUUUGAUGUUGUCUGUUGACAACAGAGGAUUGAGCAUCA
B17: 122743579_122743699_679_CDS_ENSG00000145386_ENST00000274026|human|control|control (ssRNA)
RNA: GGGAGUUCUACAGUCCGACGAUCAUCAAGAGGGACCAAUGGUUUUCUGGGUCCAGGUAAACUAAUGGCUGAAUUAAAAGCCAGGGCAUCUUCACGCUCUAUUUUUUGAGAUUCAGCUGGCUUCUUCUGAGCUUCUUUUUCUGCCAACAGAGGAUUGAGCAUCA
B18: 37202829_37203424_4297_CDS_ENSG00000170471_ENST00000397040|human|control|control (ssRNA)
RNA: GGGAGUUCUACAGUCCGACGAUCCAGAAAGCCAAGAGCUCGCCUGCUGACAAUCAUCCCAUCCACAAGAGGGAUGACCAUAUUAAAUUUUCCAGUGGCUCCUUGAAUUUUUAUCCGGAAUAAUCCAGUGUUUAAAGGGUGGAUCAACAGAGGAUUGAGCAUCA
B19: 24278311_24279896_614_3pUTR_ENSMUSG00000043067_ENSMUST00000142064|mouse|control|control (ssRNA)
RNA: GGGAGUUCUACAGUCCGACGAUCCCUCACAGCUCUCAAUCGGACUGAGUCCUUCUCCUCGGGUAACUGUCCAGCAGAUCUUGGUUUGAAUACCAAUCAAAUCCAUUAUUUUGGUAUAAAUCCGGUACCAGCUGGCUAAGAUCACAACAGAGGAUUGAGCAUCA
B20: 29179531_29182094_736_3pUTR_ENSG00000159873_ENST00000249064|human|control|control (ssRNA)
RNA: GGGAGUUCUACAGUCCGACGAUCUCCAUGGAAGGACGGCUCAUAGACUCAAUCAUUUUCUUUGUAAAAACUUCAUCAAAUUCCCUCUUCAAACCUGUUUUCAUGGUAUCAGAAAGGACAAGACUGGGGAGAUGGUUAACAUUUCAACAGAGGAUUGAGCAUCA
B21: chr14:76904430:76904431:+_ENSMUSG00000022010_ENSMUST00000022587|mus_mus|mus_mus_mus_hu_True|38_58 (ssRNA)
RNA: GGGAGUUCUACAGUCCGACGAUCUGCAGCCAAAAACACCCUCGUGGAAAAAAAGAGGGAACACCAGCAGCCUUGUACAAACUAGAUAAAAUCUUCUAGCUGUCUGCAGCCCAGGGAGAAACAGAAAACGGCAGCCCUAAUUUACAACAGAGGAUUGAGCAUCA
B22: chr13:90237973:90237974:+_ENSMUSG00000012422_ENSMUST00000161568|mus_hu|FALSE|FALSE (ssRNA)
RNA: GGGAGUUCUACAGUCCGACGAUCAAGCACAGGUACAUAUAAGCAGCAAGAUUACAGUCAAUAGACUCUGAAAAUUGAAAAUGGCAGACAUAGCGAGGCCGGCGAUGCCGCAGCCACAUCACCCUUCCGGGGCUCAGGCGGAAGCAACAGAGGAUUGAGCAUCA

Target: T1, UNK ZnF1-3
Assay: nsRBNS (natural sequence RNA bind-n-seq); RBNS binding buffer (assumed for nsRBNS): 25 mM Tris pH 7.5, 150 mM KCl, 3 mM MgCl2, 0.01% Triton X-100, 500 ug/ml BSA, 20 U/ml SUPERase-In, 4 C; UNK is unkempt and MSI1 is Musashi-1; names of the RNAs are library labels; protein concentration not given here; high values mean tight binding

Binder | binding signal [enrichment R]
B1 | 1.29
B2 | 1.14
B3 | 1.83
B4 | 1.67
B5 | 0.729
B6 | 1.02
B7 | 0.51
B8 | 1.35
B9 | 0.826
B10 | 1.2
B11 | 1.19
B12 | 1.13
B13 | 0.905
B14 | 1.08
B15 | 2.31
B16 | 0.616
B17 | 0.667
B18 | 1.11
B19 | 1.11
B20 | 1.3
B21 | 2.89
B22 | 1.37
